Usually Ki stands for the equilibrium dissociation constant of an inhibitor or competing ligand from its target.

The record followed here is patent publication US7592316B2, “Peptides as NS3-serine protease inhibitors of hepatitis C virus” (Schering Corporation, priority 2000, dated 2009).

For this assay, the target named is HCV NS3/NS4A protease (strain 1a) (Hepatitis C virus genotype 1a, UniProt P27958). Nature of the assay: biochemical. The note with it: Table 5; HCV NS3/NS4A protease, spectrophotometric assay, 30° C., pH 6.5; read-out: Ki* Range.
Consider `CCCC(NC(=O)[C@@H]1[C@@H]2[C@H](CN1C(=O)[C@@H](NS(C)(=O)=O)C(C)(C)C)C2(C)C)C(=O)C(N)=O` (some centres unmarked), for which the Ki was above 1000 nM.

Take `CCCC(NC(=O)[C@@H]1[C@@H]2[C@H](CN1C(=O)[C@@H](NC(=O)OC(C)C)C1Cc3ccccc3C1)C2(C)C)C(=O)C(N)=O` (some centres unmarked): the Ki is 101 to 1000 nM.

Turning to `CCCC(NC(=O)[C@@H]1[C@@H]2[C@H](CN1C(=O)[C@@H](NC(=O)NC1CC1)C(C)(C)C)C2(C)C)C(=O)C(N)=O` (some centres unmarked), the Ki is above 1000 nM.

Regarding `CCCC(NC(=O)[C@@H]1C2C(CN1C(=O)[C@@H](NC(=O)OCC(C)C)C1Cc3ccccc3C1)C2(C)C)C(=O)C(N)=O` (some centres unmarked), the Ki is 101 to 1000 nM.

On to `CCCC(NC(=O)[C@@H]1C2C(CN1C(=O)[C@@H](NC(=O)OC(C)CC)C1Cc3ccccc3C1)C2(C)C)C(=O)C(N)=O` (some centres unmarked), for which the Ki was in the range of 101 to 1000 nM.

For `C=CCC(NC(=O)[C@@H]1[C@H]2[C@@H](CN1C(=O)[C@@H](NC(=O)OC(C)(C)C)C(C)(C)C)C2(C)C)C(=O)C(=O)NCC(=O)NCc1ccc(OC)cc1` (some centres unmarked), the Ki lay within 1 to 100 nM.

Consider `C=CCC(NC(=O)[C@@H]1[C@H]2[C@@H](CN1C(=O)[C@@H](NC(=O)OC(C)(C)C)C(C)(C)C)C2(C)C)C(=O)C(=O)NCC(=O)NCc1ccco1` (some centres unmarked), for which the Ki lay in the range of 101 to 1000 nM.

Turning to `C=CCNC(=O)C(=O)C(CCC)NC(=O)[C@@H]1CC(F)(F)CN1C(=O)[C@@H](NC(=O)OC(C)(C)C)C(C)(C)C` (some centres unmarked), the Ki is above 1000 nM.

In the case of `C=CCNC(=O)C(=O)C(CCC)NC(=O)C1(C)CC(C)(C)CN1C(=O)[C@H](NC(=O)OC(C)(C)C)C1CCCCC1` (some centres unmarked), the Ki is above 1000 nM.

With `C=CCNC(=O)C(=O)C(CCC)NC(=O)C1(C)CC(C)(C)CN1C(=O)[C@H](NC(=O)OC(C)(C)C)C(C)(C)C` (some centres unmarked), the Ki was above 1000 nM.

For the compound `CCCC(NC(=O)[C@@H]1[C@@H]2[C@H](CN1C(=O)[C@@H](NC(=O)OC(C)(C)C)C(C)(C)C)C2(C)C)C(=O)C(=O)NCc1ccco1` (some centres unmarked), the Ki lay within 101 to 1000 nM.

In the case of `CCCC(NC(=O)[C@@H]1[C@@H]2[C@H](CN1C(=O)[C@@H](NC(=O)OC(C)(C)C)C(C)(C)C)C2(C)C)C(=O)C(=O)NCc1cccs1` (some centres unmarked), the Ki is 101 to 1000 nM.

`CCCC(NC(=O)[C@@H]1[C@@H]2[C@H](CN1C(=O)[C@@H](NC(=O)OC(C)(C)C)C(C)(C)C)C2(C)C)C(=O)C(=O)NCc1cccnc1` (some centres unmarked): the Ki is above 1000 nM.

Turning to `CCCC(NC(=O)[C@@H]1[C@@H]2[C@H](CN1C(=O)[C@@H](NC(=O)OC(C)(C)C)C(C)(C)C)C2(C)C)C(=O)C(=O)NCc1ccncc1` (some centres unmarked), the Ki is above 1000 nM.

Take `CCCC(NC(=O)[C@@H]1[C@@H]2[C@H](CN1C(=O)[C@@H](NC(=O)OC(C)(C)C)C(C)(C)C)C2(C)C)C(=O)C(=O)NCc1ccccc1` (some centres unmarked): the Ki is 101 to 1000 nM.

Turning to `CCCC(NC(=O)[C@@H]1[C@@H]2[C@H](CN1C(=O)[C@@H](NC(=O)OC(C)(C)C)C(C)(C)C)C2(C)C)C(=O)C(=O)NCC=C(C)C` (some centres unmarked), the Ki was in the range of 101 to 1000 nM.

As for `C=CCNC(=O)C(=O)C(CCC1CC1)NC(=O)[C@@H]1[C@@H]2[C@H](CN1C(=O)[C@@H](NC(=O)OC(C)(C)C)C(C)(C)C)C2(C)C` (some centres unmarked), the Ki was in the range of 101 to 1000 nM.

On to `C=CCNC(=O)C(=O)C1(NC(=O)[C@@H]2[C@@H]3[C@H](CN2C(=O)[C@@H](NC(=O)OC(C)(C)C)C(C)(C)C)C3(C)C)CC1`, for which the inhibition constant Ki is above 1000 nM.

In the case of `CCCC(NC(=O)[C@@H]1[C@@H]2[C@H](CN1C(=O)[C@@H](NC(=O)OC(C)(C)C)C(C)(C)C)C2(C)C)C(=O)C(=O)NCCC(=O)Nc1ccccc1` (some centres unmarked), the Ki fell in the range of 101 to 1000 nM.

For `C=CCCC(NC(=O)C1[C@H]2[C@@H](CN1C(=O)[C@@H](NC(=O)OC(C)(C)C)C(C)(C)C)C2(C)C)C(=O)C(=O)NCC#N` (some centres unmarked), the Ki was in the range of 101 to 1000 nM.

For the compound `C=CCC(NC(=O)[C@@H]1C2C(CN1C(=O)[C@@H](NC(=O)OC(C)(C)C)C(C)(C)C)C2(C)C)C(=O)C(=O)NCC(=O)NCC1CCCCC1` (some centres unmarked), the Ki was 101 to 1000 nM.

In the case of `CCCNC(=O)CNC(=O)C(=O)C(CCC)NC(=O)[C@@H]1[C@@H]2[C@H](CN1C(=O)[C@@H](NC(=O)OC(C)(C)C)C(C)(C)C)C2(C)C` (some centres unmarked), the Ki is above 1000 nM.

In the case of `C=CCNC(=O)CNC(=O)C(=O)C(CCC)NC(=O)[C@@H]1[C@@H]2[C@H](CN1C(=O)[C@@H](NC(=O)OC(C)(C)C)C(C)(C)C)C2(C)C` (some centres unmarked), the Ki lay in the range of 101 to 1000 nM.

With `C#CCNC(=O)C(=O)C(CCC)NC(=O)[C@@H]1[C@@H]2[C@H](CN1C(=O)[C@@H](NC(=O)OC(C)(C)C)C(C)(C)C)C2(C)C` (some centres unmarked), the Ki was above 1000 nM.

For `C=CCNC(=O)C(=O)C(CC#CC)NC(=O)[C@@H]1[C@H]2[C@@H](CN1C(=O)[C@@H](NC(=O)OC(C)(C)C)C(C)(C)C)C2(C)C` (some centres unmarked), the Ki was above 1000 nM.

Take `C=CCNC(=O)C(=O)C(CCc1ccccc1)NC(=O)C1[C@H]2[C@@H](CN1C(=O)C(NC(=O)OC(C)(C)C)C1CCC(F)(F)CC1)C2(C)C` (some centres unmarked): the Ki fell in the range of 101 to 1000 nM.

`C=CCCC(NC(=O)[C@@H]1[C@H]2[C@@H](CN1C(=O)[C@@H](NC(=O)OC(C)(C)C)C1CCC(F)(F)CC1)C2(C)C)C(=O)C(=O)NCC=C` (some centres unmarked): the Ki fell in the range of 1 to 100 nM.

Regarding `C=CCCC(NC(=O)[C@@H]1[C@H]2[C@H](CN1C(=O)[C@@H](NC(=O)OC(C)(C)C)C(C)(C)C)C2(C)C)C(=O)C(=O)NCCC(=O)OC(C)(C)C` (some centres unmarked), the Ki is 101 to 1000 nM.

On to `C=CCC(NC(=O)[C@@H]1[C@H]2[C@@H](CN1C(=O)[C@@H](NC(=O)OC(C)(C)C)C(C)(C)C)C2(C)C)C(=O)C(=O)NCC(=O)NCc1ccc([N+](=O)[O-])cc1` (some centres unmarked), for which the Ki lay within 101 to 1000 nM.

For the compound `CNC(=O)C(=O)C(CC1CC1)NC(=O)[C@@H]1[C@@H]2[C@H](CN1C(=O)[C@@H](NC(=O)OC(C)(C)C)C(C)(C)C)C2(C)C` (some centres unmarked), the Ki was in the range of 101 to 1000 nM.

For `CNC(=O)C(=O)C(CC1CC1)NC(=O)[C@@H]1[C@@H]2[C@H](CN1C(=O)[C@@H](NC(=O)OC(C)(C)C)C1CCCCC1)C2(C)C` (some centres unmarked), the Ki fell in the range of 101 to 1000 nM.

Consider `C=CCNC(=O)C(=O)C(CC1CC1)NC(=O)[C@@H]1[C@@H]2[C@H](CN1C(=O)[C@@H](NC(=O)OC(C)(C)C)C1CCCCC1)C2(C)C` (some centres unmarked), for which the Ki lay in the range of 101 to 1000 nM.

Regarding `C=CCNC(=O)C(=O)C(CC1CC1)NC(=O)[C@@H]1[C@@H]2[C@H](CN1C(=O)[C@@H](NC(=O)OC(C)(C)C)C1CCC(F)(F)CC1)C2(C)C` (some centres unmarked), the Ki was in the range of 101 to 1000 nM.

`C=CCCC(NC(=O)[C@@H]1[C@@H]2[C@H](CN1C(=O)[C@@H](NC(=O)OC(C)(C)C)C(C)(C)C)C2(C)C)C(=O)C(=O)NCC(=O)c1ccccc1` (some centres unmarked): the Ki is 101 to 1000 nM.

Regarding `C=CCNC(=O)C(=O)C(CCC)NC(=O)C1C2C(CN1C(=O)C(NC(=O)OC(C)(C)C)C1CCC(F)(F)CC1)C2(C)C` (centres unmarked), the Ki fell in the range of 101 to 1000 nM.

Take `C=CCCC(NC(=O)[C@@H]1[C@H]2[C@@H](CN1C(=O)[C@@H](NC(=O)OC(C)(C)C)C1CCC(F)(F)CC1)C2(C)C)C(=O)C(=O)NCCC(=O)OC(C)(C)C` (some centres unmarked): the Ki was in the range of 1 to 100 nM.

For the compound `C=CCCC(NC(=O)C1C2C(CN1C(=O)[C@@H](NC(=O)OC(C)(C)C)C(C)(C)C)C2(C)C)C(=O)C(=O)NC/C=C/C(=O)OCC` (some centres unmarked), the Ki was 101 to 1000 nM.

With `C=CCCC(NC(=O)[C@@H]1[C@@H]2[C@H](CN1C(=O)[C@@H](NC(=O)OC(C)(C)C)C(C)(C)C)C2(C)C)C(=O)C(=O)NCC(=C)CCc1ccccc1` (some centres unmarked), the Ki is above 1000 nM.

Turning to `C=CCCC(NC(=O)C1[C@H]2[C@@H](CN1C(=O)[C@@H](NC(=O)OC(C)(C)C)C(C)(C)C)C2(C)C)C(=O)C(=O)NCCNC(C)=O` (some centres unmarked), the Ki fell in the range of 101 to 1000 nM.

Turning to `CONC(=O)C(=O)C(CC1CC1)NC(=O)[C@@H]1[C@@H]2[C@H](CN1C(=O)[C@@H](NC(=O)OC(C)(C)C)C1CCCCC1)C2(C)C` (some centres unmarked), the Ki lay in the range of 101 to 1000 nM.

Take `C=CCONC(=O)C(=O)C(CC1CC1)NC(=O)[C@@H]1[C@@H]2[C@H](CN1C(=O)[C@@H](NC(=O)OC(C)(C)C)C1CCCCC1)C2(C)C` (some centres unmarked): the Ki is above 1000 nM.
